SMILES strings stand for the structures. Hit rate of the full screen: of about 310,000 compounds, about 2,200 (0.71%) showed an effect of 50% or more. Effects have a minus sign here. This is one part of the list.

The target of the test is human ether-à-go-go-related gene (hERG) potassium channel (human, UniProt Q12809). Nature of the test: primary screen, population patch clamp on CHO cells stably expressing hERG.
human ether-à-go-go-related gene (hERG) potassium channel, sequence (Q12809 whole entry, looked up): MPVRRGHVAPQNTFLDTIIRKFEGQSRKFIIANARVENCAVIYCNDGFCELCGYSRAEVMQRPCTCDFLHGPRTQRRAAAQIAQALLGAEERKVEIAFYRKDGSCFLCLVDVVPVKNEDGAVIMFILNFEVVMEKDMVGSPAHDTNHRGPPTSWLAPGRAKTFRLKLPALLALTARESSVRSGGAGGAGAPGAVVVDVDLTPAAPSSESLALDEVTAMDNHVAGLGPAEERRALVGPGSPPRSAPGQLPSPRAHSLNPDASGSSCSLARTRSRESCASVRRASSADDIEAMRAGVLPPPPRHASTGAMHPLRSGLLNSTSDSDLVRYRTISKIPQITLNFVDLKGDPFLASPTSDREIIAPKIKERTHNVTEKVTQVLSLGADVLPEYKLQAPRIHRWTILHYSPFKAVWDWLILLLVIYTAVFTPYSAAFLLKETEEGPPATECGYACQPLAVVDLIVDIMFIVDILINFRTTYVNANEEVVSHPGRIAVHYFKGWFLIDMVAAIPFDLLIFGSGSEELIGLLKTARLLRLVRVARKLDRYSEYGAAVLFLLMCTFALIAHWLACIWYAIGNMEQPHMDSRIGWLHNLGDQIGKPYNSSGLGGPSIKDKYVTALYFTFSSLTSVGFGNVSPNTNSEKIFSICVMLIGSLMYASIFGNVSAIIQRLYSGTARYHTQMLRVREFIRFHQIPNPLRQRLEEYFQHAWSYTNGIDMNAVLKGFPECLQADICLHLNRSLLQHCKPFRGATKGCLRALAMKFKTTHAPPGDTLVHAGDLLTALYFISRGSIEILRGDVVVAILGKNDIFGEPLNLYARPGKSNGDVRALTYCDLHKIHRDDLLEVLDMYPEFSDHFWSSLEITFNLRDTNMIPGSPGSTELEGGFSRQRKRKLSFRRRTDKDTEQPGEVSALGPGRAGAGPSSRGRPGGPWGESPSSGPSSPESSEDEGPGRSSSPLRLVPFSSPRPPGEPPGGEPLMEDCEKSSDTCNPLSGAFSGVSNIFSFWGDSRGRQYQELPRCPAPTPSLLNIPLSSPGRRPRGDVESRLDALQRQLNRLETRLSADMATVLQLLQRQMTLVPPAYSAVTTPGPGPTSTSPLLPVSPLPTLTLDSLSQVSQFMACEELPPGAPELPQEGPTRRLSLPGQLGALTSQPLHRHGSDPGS
With `CCOc1ccc(NC(=O)CN2C(=O)c3ccccc3C2=O)cc1`, the “hERG current change (%, negative = inhibition) at 1uM” value amounted to 10.5%.

As to `Cc1ccccc1N1CC(=O)Nc2c(oc3nc(-c4ccccc4)cc(C)c23)C1=O`, the “hERG current change (%, negative = inhibition) at 1uM” value worked out at 10.4%.

Consider `CC(=O)N1c2ccc(S(=O)(=O)NCC3CCC(C(=O)NC4CCC(C)CC4)CC3)cc2CC1C` (stereo not shown), for which the “hERG current change (%, negative = inhibition) at 1uM” value amounted to 11.1%.

Regarding `Cc1nn(C(C)c2nc(-c3ccccc3)no2)c(C)c1[N+](=O)[O-]` (stereo not shown), the “hERG current change (%, negative = inhibition) at 1uM” value is on record as -10.1%.

Take `COc1ccccc1C(=O)NCCN1CCN(c2ccccc2)CC1.Cl`: the “hERG current change (%, negative = inhibition) at 1uM” value came out at 12.5%.

For the compound `COC(=O)c1oc2ccc(Cl)cc2c1N`, the “hERG current change (%, negative = inhibition) at 1uM” value is 9.5%.

On to `N#Cc1nc(Cc2ccccc2)oc1N1CCN(c2cccc(Cl)c2)CC1`, for which the “hERG current change (%, negative = inhibition) at 1uM” value is recorded as 10.2%.

Regarding `COc1cc2c(cc1OC)C(=O)NCC(C)(C)O2`, the “hERG current change (%, negative = inhibition) at 1uM” value is 2.17%.

For `CCc1nc(Nc2ccc(O)cc2)c2oc3ccccc3c2n1.Cl`, the “hERG current change (%, negative = inhibition) at 1uM” value worked out at 8.58%.

Consider `O=C(CCS(=O)(=O)c1ccc(Br)s1)NC1CCCCCC1`, for which the “hERG current change (%, negative = inhibition) at 1uM” value was found to be 14.1%.

`COCCCNC(=O)c1c(N)n(-c2cccc(S(N)(=O)=O)c2)c2nc3ccccc3nc12`: the “hERG current change (%, negative = inhibition) at 1uM” value is listed as 14.3%.

With `Cc1ccc(CN2CC(C(=O)N3CCN(S(=O)(=O)c4c(F)cccc4F)CC3)CC2=O)cc1` (stereo not shown), the “hERG current change (%, negative = inhibition) at 1uM” value came out at 9.3%.

For `COc1ccccc1CN(C)C(=O)c1cccc(S(=O)(=O)N2CCc3ccccc3C2)c1`, the “hERG current change (%, negative = inhibition) at 1uM” value was found to be 5.01%.

For the compound `CCOC(=O)N1CCC(NC(=O)CC2C(=O)NCCN2Cc2ccc(C)cc2)CC1` (stereo not shown), the “hERG current change (%, negative = inhibition) at 1uM” value was -7.97%.

As for `O=C(Nn1cnc2ccccc2c1=O)c1ccc([N+](=O)[O-])cc1`, the “hERG current change (%, negative = inhibition) at 1uM” value is 10.7%.

For the compound `COc1ccc(C(=O)/C=C/c2cn(CN3CCN(C)CC3)c3ccccc23)cc1`, the “hERG current change (%, negative = inhibition) at 1uM” value is given as -3.29%.

As to `CCC(C)(C)NC(=O)CN(C(=O)CCC(=O)Nc1nccs1)c1ccc(C)cc1`, the “hERG current change (%, negative = inhibition) at 1uM” value was found to be 8.06%.

Consider `Cc1cc(OCC(=O)N2CCN(c3ccc(F)cc3)CC2)c2c(C)cc(=O)oc2c1`, for which the “hERG current change (%, negative = inhibition) at 1uM” value is listed as 15.7%.

As to `Cc1c(NC(=O)CN2C(=O)C(=O)c3ccccc32)c(=O)n(-c2ccccc2)n1C`, the “hERG current change (%, negative = inhibition) at 1uM” value is on record as 8.8%.

Take `CCOC(=O)c1sc(=S)n(-c2cc(F)ccc2F)c1N`: the “hERG current change (%, negative = inhibition) at 1uM” value is listed as 7.7%.

`Cc1cc(C(=O)CN2C(=O)NC3(CCCc4sccc43)C2=O)c(C)n1-c1ccccc1` (stereo not shown): the “hERG current change (%, negative = inhibition) at 1uM” value was 13.2%.

With `CC(/C=C/c1ccc2c(c1)OCO2)=N\NC(=O)C(O)c1ccccc1` (stereo not shown), the “hERG current change (%, negative = inhibition) at 1uM” value came to 18.4%.

On to `C[C@H](NC(=O)OC(C)(C)C)C(=O)N/N=C/c1ccc2nccnc2c1`, for which the “hERG current change (%, negative = inhibition) at 1uM” value was determined as 18%.

With `CC(C)c1ccc(-c2nc(N3CCCC3)nc3n[nH]c(N)c23)cc1`, the “hERG current change (%, negative = inhibition) at 1uM” value came out at 7.84%.

`COC(=O)c1c(NC(=O)CC2SC(N)=NC2=O)sc(C)c1C` (stereo not shown): the “hERG current change (%, negative = inhibition) at 1uM” value is reported as 12%.

Regarding `COC(=O)CCC(=O)OC1(C)C(=O)C=C2C=C(C3CC3)N(c3ccc(CO)cc3)C=C2C1=O` (stereo not shown), the “hERG current change (%, negative = inhibition) at 1uM” value is reported as 20.2%.

Regarding `CC(=O)n1cc(C(C[N+](=O)[O-])SCCN)c2ccccc21.Cl` (stereo not shown), the “hERG current change (%, negative = inhibition) at 1uM” value worked out at 10.7%.

Take `Cc1ccc(CNS(=O)(=O)c2ccc3c(c2)CCN3C(=O)C2CCC2)cc1`: the “hERG current change (%, negative = inhibition) at 1uM” value was found to be 11.9%.

On to `NC(=O)Cc1ccc(C(=O)c2ccc(Cl)cc2Cl)s1`, for which the “hERG current change (%, negative = inhibition) at 1uM” value turned out to be 11.9%.

Turning to `CC1CCCN(C(=O)c2cc3c(-c4ccc(Cl)cc4)nn(C)c3s2)C1` (stereo not shown), the “hERG current change (%, negative = inhibition) at 1uM” value is 0.405%.

On to `COC(CNC(=O)c1cccc2c1C(=O)N(Cc1cccnc1)C2)OC`, for which the “hERG current change (%, negative = inhibition) at 1uM” value was determined as 10.1%.

As to `CCOC(=O)c1ccc(-c2ccc(/C=N/NC(=O)c3cncc(Br)c3)o2)cc1`, the “hERG current change (%, negative = inhibition) at 1uM” value amounted to 13.1%.

Turning to `CCO[C@@H]1OC(C(=O)N2CCN(Cc3ccccc3)CC2)=C[C@H](c2ccccc2)[C@H]1CCCO`, the “hERG current change (%, negative = inhibition) at 1uM” value is 9.19%.

As to `COc1ccccc1CNC(=O)Cc1ccc(C)cc1`, the “hERG current change (%, negative = inhibition) at 1uM” value amounted to 3.1%.

As for `Nc1ccc(-c2cnc[nH]2)cc1[N+](=O)[O-]`, the “hERG current change (%, negative = inhibition) at 1uM” value is given as 14.9%.

`CC(=O)NCCc1nc2cc(NC(=O)c3ccc([N+](=O)[O-])cc3)ccc2n1C`: the “hERG current change (%, negative = inhibition) at 1uM” value is on record as 4.1%.

Regarding `Cc1ccc(S(=O)(=O)N2CCC(=O)N(C(COCc3ccc(Cl)cc3Cl)Cc3ccccc3)CC2)cc1` (stereo not shown), the “hERG current change (%, negative = inhibition) at 1uM” value was determined as 12.9%.

With `Cc1ccccc1NS(=O)(=O)c1nnc(NC(=O)c2ccccc2F)s1`, the “hERG current change (%, negative = inhibition) at 1uM” value stood at 20.3%.

As for `CCOc1ccc(/C=N/NC(=O)CSc2ccccn2)cc1O`, the “hERG current change (%, negative = inhibition) at 1uM” value came to 2.12%.

With `CC1=NNC(=O)C1CCC(=O)N/N=C/c1ccccc1` (stereo not shown), the “hERG current change (%, negative = inhibition) at 1uM” value was found to be 11.5%.

For the compound `COc1ccc(/C=C(/C#N)C(=O)Nc2cccnc2)cc1OC`, the “hERG current change (%, negative = inhibition) at 1uM” value is listed as -1.31%.

On to `Cc1cc(C)cc(NC(=O)N2CCC(NC(=O)c3ccc(F)cc3)CC2)c1`, for which the “hERG current change (%, negative = inhibition) at 1uM” value is on record as -2.93%.

For `Cc1cc(C)nc(N(C#N)Cc2ccc([N+](=O)[O-])cc2)n1`, the “hERG current change (%, negative = inhibition) at 1uM” value was -5.55%.

For the compound `Cc1ccc(OCc2nc(C#N)c(N3CCCCC3)o2)cc1`, the “hERG current change (%, negative = inhibition) at 1uM” value is recorded as 12.7%.

Take `COC(=O)c1cc(NC(=O)Cc2cc(OC)c(OC)c(OC)c2)cc(C(=O)OC)c1`: the “hERG current change (%, negative = inhibition) at 1uM” value came to 13.4%.

For the compound `OCCCc1ccc(O)c(O)c1`, the “hERG current change (%, negative = inhibition) at 1uM” value was -3.41%.

On to `O=S(=O)(c1cccc2nsnc12)N1CCNCC1`, for which the “hERG current change (%, negative = inhibition) at 1uM” value is recorded as 6.6%.

Take `CC1CCCCN1CCNC(=O)c1ccc2c(=O)n(Cc3ccc(Cl)cc3)c(=S)[nH]c2c1` (stereo not shown): the “hERG current change (%, negative = inhibition) at 1uM” value is reported as -5.71%.

As to `COc1ccc(C(=O)COc2ccccc2N2C(=O)C3C4C=CC(C4)C3C2=O)cc1` (stereo not shown), the “hERG current change (%, negative = inhibition) at 1uM” value is on record as 3.84%.

For the compound `O=S(=O)(NCCc1cn2ccccc2n1)c1ccc2c(c1)CCCC2`, the “hERG current change (%, negative = inhibition) at 1uM” value is listed as -3.09%.

Take `CN=C(Cc1ccccc1)C1=C(O)CC(C)(C)CC1=O`: the “hERG current change (%, negative = inhibition) at 1uM” value amounted to 14.8%.

Take `COc1ccc(CNC(=O)CN(c2ccc(OC)cc2)S(=O)(=O)c2c(C)nn(C)c2C)cc1`: the “hERG current change (%, negative = inhibition) at 1uM” value is 0.558%.

Take `O=C(CCNC(=O)N1CC(=O)Nc2ccccc21)Nc1cccc(Cl)c1`: the “hERG current change (%, negative = inhibition) at 1uM” value is reported as 14.3%.

Turning to `CCN(CC)CCn1c(=S)[nH]c2cc(Cl)ccc2c1=O`, the “hERG current change (%, negative = inhibition) at 1uM” value is given as -45.6%.

`COc1cc(C(=O)NCC(=O)N2CCN(S(=O)(=O)c3cc(C)ccc3C)CC2)cc(OC)c1OC`: the “hERG current change (%, negative = inhibition) at 1uM” value is 3.56%.
